# Measurements: PubChem BioAssay AID1794842 (National Center for Advancing Translational Sciences (NCATS), 2023)
# Hit rate of the full screen: of about 2,800 compounds, fewer than 10 were called active. Calls come from the whole dose curve; as a rule, active = well fitted curve in the direction sought with a large enough effect; inconclusive = small, poorly fitted or top-dose-only effect, or another doubt; inactive = no such curve, though single readings can be large or run the other way. The list shows a part of the results.
# Biological target: Metallo-beta-lactamase type 2 (Klebsiella pneumoniae) (UniProt C7C422)
# Assay: qHTS to identify inhibitors of the New Delhi Metallo-beta-lactamase (NDM): Meropenem screen against the machine-based learning selections. Note: % of control where 0% means no effect.
# Conditions: Purified NDM-1, meropenem hydrolysis, absorbance 300 nm; at 38.4 µM (top of the series) unless noted
# Outline: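 NDM-1 (2 nM final) in 50 mM HEPES pH 7.0, 1 uM Zn2SO4, 0.01% Tween20 was preincubated with compounds for >30 min. Nitrocefin (16.7 uM final) was read at 485 nm after 15 min, and meropenem (50 uM final) at 300 nm after 30 min.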
# Chain of UniProt C7C422 (C7C422 whole entry, looked up): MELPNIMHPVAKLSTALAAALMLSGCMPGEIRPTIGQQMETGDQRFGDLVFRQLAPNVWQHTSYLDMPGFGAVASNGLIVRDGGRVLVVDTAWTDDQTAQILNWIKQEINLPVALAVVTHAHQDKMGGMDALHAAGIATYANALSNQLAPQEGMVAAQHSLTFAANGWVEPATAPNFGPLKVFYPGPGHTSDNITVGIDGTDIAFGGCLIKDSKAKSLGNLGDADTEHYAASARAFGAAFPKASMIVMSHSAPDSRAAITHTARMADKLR
row,Compound,"activity change, negative = inhibition"
1,CC(=O)N1CCN(C(=O)c2cc(CC(C)C)[nH]c(=O)n2)CC(O)C1 (configuration not stated),inactive: 5.88%
2,CC(c1cccc(-c2nc3c(cc2C(N)=O)CCC3)c1)N1CCCC1 (configuration not stated),inactive: 0.919%
3,COc1ccc(CN2C(=O)[C@@H]3C[C@@H](O)CN3C3(CN(C(C)C)C3)C2=O)cc1,inactive: 3.99% [at 57.5 µM]
4,Cc1cnc(C(=O)NC2CC(c3nnc(CO)n3C3CC3)C2)[nH]1 (configuration not stated),inactive: -2.68%
5,O=C(Cn1cnnn1)N1CCc2ncnc(NC[C@H]3CCCO3)c2CC1,inactive: 0.304%
6,CC[C@H]1CN(C(=O)C2CC2)CC[C@H]1CC(=O)N(C)CCC#N,inactive: -0.61% [at 57.5 µM]
7,COC(=O)[C@@H]1Cc2c([nH]c3ccccc23)[C@@H]2C[C@@H](NCCNC(C)=O)C[C@@H](c3cccc(Cl)c3)N12,inactive: -0.597%
8,Cc1cc(C)c(S(=O)(=O)N2CCCC(Cn3cc(CO)nn3)C2)c(C)c1 (configuration not stated),inactive: -0.0275%
9,Cc1ncc2n1C(=O)N(C1CCN(Cc3ccsc3)CC1)C2,inactive: 3.56% [at 57.5 µM]
10,COc1ccc(-c2nc3c(c(=O)[nH]2)CCN(C(=O)Nc2ccc4c(c2)CCC4)C3)cc1,inactive: -1.88%
11,CN1c2cc(C(=O)NCc3cccs3)ccc2C(=O)N2CCCCC21 (configuration not stated),inactive: -0.378%
12,OCC1CN(Cc2cscn2)CCC12CCN(Cc1ccccc1)CC2 (configuration not stated),inactive: -1.72%
13,COC(=O)[C@H](NC(=O)[C@@H]1C[C@@H](NS(=O)(=O)c2cccc(C(F)(F)F)c2)CCN1C(=O)CCC(=O)O)C(C)C,inactive: 0.233%
14,C[S+](=O)([O-])c1ccc(-c2cnc3n[nH]c(-c4ccccc4)c3n2)cc1,inactive: 2.47% [at 57.5 µM]
15,Cn1cc(-c2cnc3[nH]cc(CC(=O)Nc4cccnc4)c3c2)cn1,inactive: 0.84% [at 57.5 µM]
16,Cc1ccc(-c2nnc([C@H]3CCN(C(=O)CCC(=O)O)C3)o2)cc1,inactive: 5.13% [at 57.5 µM]
17,O=C(O)c1ccc(NCc2nc3c(n2Cc2ccccc2)C(=O)N(Cc2cccc(Cl)c2)CCN3)cc1,inactive: 7.74%
18,O=C(NC1CCC(O)CC1)c1ccc(-c2ncc3cnc(-c4ccccc4)cn23)cc1 (configuration not stated),inactive: 0.926% [at 76.7 µM]
19,COc1cc(C)c2c(c1C)C[C@H](C(C)C(=O)NCc1cccs1)CC2 (some centres not stated),inactive: 1.31% [at 57.5 µM]

row,Compound,"activity change, negative = inhibition"
1,CC(=O)N1CCN(C(=O)C[C@@H]2c3nc(NC(=O)C(C)(C)C)sc3C[C@@H]3[C@](C)(CO)[C@H](O)CC[C@]32C)CC1,inactive: 4.25%
2,Cc1ccc(OC2(C(=O)NC(C)c3nn[nH]n3)CCNCC2)cc1 (configuration not stated),inactive: 18.8%
3,O=C(N[C@@H]1CCN(Cc2cccc3nonc23)C[C@H]1O)c1cccnc1,inactive: 0.258%
4,c1ccc(CCN2CCNc3cc(NCc4cccnc4)ncc3C2)cc1,inactive: 2.19% [at 57.5 µM]
5,CN1CCC(N2CC3(C2)C(=O)N(C)C(=O)[C@@H]2C[C@@H](O)CN23)CC1,inactive: 14.6% [at 57.5 µM]
6,O=C(O)C1Cc2nc[nH]c2CN1C(=O)c1cccc(-n2cccn2)c1 (configuration not stated),inactive: 28.1%
7,Oc1cccc(-c2cnc3n[nH]c(-c4ccccc4)c3n2)c1,inactive: 1.8% [at 76.7 µM]
8,COc1ccc2[nH]c3c(c2c1)CCN(C)C31CCN(C(=O)c2ccccn2)CC1,inactive: -2.02%
9,OC(c1cccc(C(F)(F)F)c1)c1nc(Nc2ccc(N3CCOCC3)cc2)n[nH]1 (configuration not stated),inactive: 52.7% [at 57.5 µM]
10,N[C@@H](Cc1cnc[nH]1)C(=O)N1CCC2(CC1)Nc1ccccc1NC2=O,inactive: 23.4%
11,Clc1ccc(-c2cnc([C@@H]3COCCN3C3CCNCC3)[nH]2)s1,inactive: 10.7% [at 57.5 µM]
12,Cn1ccc(NC(=O)C2(C)CCCc3cnc(NCc4ccccc4)nc32)n1 (configuration not stated),inactive: 1.43% [at 57.5 µM]
13,COc1ccccc1Oc1ncccc1CNC(=O)Nc1cccc(C#N)c1,inactive: -0.678%
14,CSc1ccc(-c2nc(CN(C)Cc3cnccn3)c(C)o2)cc1,inactive: 38.9%
15,O=C(CCn1cnnn1)N1CCC2(CC1)Nc1ccccc1NC2=O,inactive: -4.74%
16,CC[C@H]1CN(C(C)=O)CC[C@H]1CC(=O)NC(C)C,inactive: 1.4% [at 76.7 µM]
17,OC(c1nc(Nc2cccc(Cl)c2)n[nH]1)C1CC1 (configuration not stated),inactive: 1% [at 0.0117 µM]
18,Cc1cccc(-c2cccc(CCOc3cnc4c(ccn4CC(=O)O)c3)c2)c1,inactive: 10.7% [at 57.5 µM]
